Test results: the supplement of paper PMC10369915
The list shows a part of the results. Cut-off read from the data, not from the text of the source: active = 3.2 or more and inactive = the rest. Most of these values are background signal.

Target: SHP2 C-SH2 domain E139D
Assay: enrichment score (SH2-bound / input frequency) (ratio); bacterial display of known human phosphotyrosine sites (pTyr-Var adds point mutants) read by sequencing; higher = stronger binding; tyrosines were phosphorylated by kinases first
Conditions: peptide library: Human pTyr
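Note: displayed peptides selected on beads carrying the immobilized SH2 domain, with library peptides lacking any tyrosine serving as negative controls.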

Enrichment score, inactive:
SAPYGARYVGSMVAD [F16P1_HUMAN_245] 0.452
VAGGIFLYPANKKSP [F16P1_HUMAN_265_YA] 1.28
IASLNEGYAKAFDAA [F16P2_HUMAN_216_YA] 0.618
EENVRFIYEAWQGVE [F195B_HUMAN_41] 0.944
NVTCTRIYEKVEGGG [FABP5_HUMAN_131] 1.29
DSKNFDDYMKSLGVG [FABPH_HUMAN_20] 1.73
MSSSYESYDEEEEDG [AFAP1_HUMAN_125] 1.29
AIEDEDAYKASVTRL [FAK2_HUMAN_580_YA] 0.898
MSSSAESYDEEEEDG [AFAP1_HUMAN_125_YA] 1.2
TPEKEVGYLEFTGPP [FAK2_HUMAN_849] 0.846
DRTDDLVYLNVMELV [FAK2_HUMAN_881] 1.1
ALETSRLYEDSGYSS [FBXO5_HUMAN_142] 0.616
ALETSRLYEDSGASS [FBXO5_HUMAN_142_YA] 0.659
STRNQETYETLKHEK [FCERG_HUMAN_76] 0.855
YETADGGYMTLNPRA [FCG2A_HUMAN_288] 0.654
TDDDKNIYLTLPPND [FCG2A_HUMAN_304] 0.713
TDPEALHYDAIDVEM [AFAP1_HUMAN_451_YA] 1
EAKILKQYDHPNIVK [FER_HUMAN_615] 0.945

Target: SHP2 C-SH2 domain wild-type
Assay: as above
Conditions: peptide library: Human pTyr

Enrichment score, inactive:
SAPYGARYVGSMVAD [F16P1_HUMAN_245] 0.417
VAGGIFLYPANKKSP [F16P1_HUMAN_265_YA] 1.42
IASLNEGYAKAFDAA [F16P2_HUMAN_216_YA] 0.612
EENVRFIYEAWQGVE [F195B_HUMAN_41] 0.934
NVTCTRIYEKVEGGG [FABP5_HUMAN_131] 1.06
DSKNFDDYMKSLGVG [FABPH_HUMAN_20] 1.33
MSSSYESYDEEEEDG [AFAP1_HUMAN_125] 1.28
AIEDEDAYKASVTRL [FAK2_HUMAN_580_YA] 0.56
MSSSAESYDEEEEDG [AFAP1_HUMAN_125_YA] 0.882
TPEKEVGYLEFTGPP [FAK2_HUMAN_849] 0.698
DRTDDLVYLNVMELV [FAK2_HUMAN_881] 0.886
ALETSRLYEDSGYSS [FBXO5_HUMAN_142] 0.49
ALETSRLYEDSGASS [FBXO5_HUMAN_142_YA] 0.711
STRNQETYETLKHEK [FCERG_HUMAN_76] 0.779
YETADGGYMTLNPRA [FCG2A_HUMAN_288] 0.59
TDDDKNIYLTLPPND [FCG2A_HUMAN_304] 0.774
TDPEALHYDAIDVEM [AFAP1_HUMAN_451_YA] 0.767
EAKILKQYDHPNIVK [FER_HUMAN_615] 0.917

Target: SHP2 N-SH2 domain L43F
Assay: as above
Conditions: peptide library: Human pTyr

Enrichment score, inactive:
SAPYGARYVGSMVAD [F16P1_HUMAN_245] 0.512
VAGGIFLYPANKKSP [F16P1_HUMAN_265_YA] 1.39
IASLNEGYAKAFDAA [F16P2_HUMAN_216_YA] 0.797
EENVRFIYEAWQGVE [F195B_HUMAN_41] 0.998
NVTCTRIYEKVEGGG [FABP5_HUMAN_131] 1.08
DSKNFDDYMKSLGVG [FABPH_HUMAN_20] 1.18
MSSSYESYDEEEEDG [AFAP1_HUMAN_125] 1.4
AIEDEDAYKASVTRL [FAK2_HUMAN_580_YA] 0.605
MSSSAESYDEEEEDG [AFAP1_HUMAN_125_YA] 1.02
TPEKEVGYLEFTGPP [FAK2_HUMAN_849] 0.532
DRTDDLVYLNVMELV [FAK2_HUMAN_881] 1.21
ALETSRLYEDSGYSS [FBXO5_HUMAN_142] 0.631
ALETSRLYEDSGASS [FBXO5_HUMAN_142_YA] 0.573
STRNQETYETLKHEK [FCERG_HUMAN_76] 0.7
YETADGGYMTLNPRA [FCG2A_HUMAN_288] 0.527
TDDDKNIYLTLPPND [FCG2A_HUMAN_304] 0.564
TDPEALHYDAIDVEM [AFAP1_HUMAN_451_YA] 1.13
EAKILKQYDHPNIVK [FER_HUMAN_615] 1.2

Target: SHP2 N-SH2 domain T42A
Assay: as above
Conditions: peptide library: Human pTyr

Enrichment score, inactive:
SAPYGARYVGSMVAD [F16P1_HUMAN_245] 0.47
VAGGIFLYPANKKSP [F16P1_HUMAN_265_YA] 1.45
IASLNEGYAKAFDAA [F16P2_HUMAN_216_YA] 0.539
EENVRFIYEAWQGVE [F195B_HUMAN_41] 0.867
NVTCTRIYEKVEGGG [FABP5_HUMAN_131] 1.47
DSKNFDDYMKSLGVG [FABPH_HUMAN_20] 1.25
MSSSYESYDEEEEDG [AFAP1_HUMAN_125] 1.19
AIEDEDAYKASVTRL [FAK2_HUMAN_580_YA] 0.601
MSSSAESYDEEEEDG [AFAP1_HUMAN_125_YA] 0.884
TPEKEVGYLEFTGPP [FAK2_HUMAN_849] 1.37
DRTDDLVYLNVMELV [FAK2_HUMAN_881] 1.1
ALETSRLYEDSGYSS [FBXO5_HUMAN_142] 0.588
ALETSRLYEDSGASS [FBXO5_HUMAN_142_YA] 0.488
STRNQETYETLKHEK [FCERG_HUMAN_76] 1.09
YETADGGYMTLNPRA [FCG2A_HUMAN_288] 0.507
TDDDKNIYLTLPPND [FCG2A_HUMAN_304] 0.872
TDPEALHYDAIDVEM [AFAP1_HUMAN_451_YA] 0.786
EAKILKQYDHPNIVK [FER_HUMAN_615] 0.934

Target: SHP2 N-SH2 domain T52S
Assay: as above
Conditions: peptide library: Human pTyr

Enrichment score, inactive:
SAPYGARYVGSMVAD [F16P1_HUMAN_245] 0.406
VAGGIFLYPANKKSP [F16P1_HUMAN_265_YA] 1.44
IASLNEGYAKAFDAA [F16P2_HUMAN_216_YA] 0.676
EENVRFIYEAWQGVE [F195B_HUMAN_41] 1.03
NVTCTRIYEKVEGGG [FABP5_HUMAN_131] 1.14
DSKNFDDYMKSLGVG [FABPH_HUMAN_20] 1.3
MSSSYESYDEEEEDG [AFAP1_HUMAN_125] 1.01
AIEDEDAYKASVTRL [FAK2_HUMAN_580_YA] 0.501
MSSSAESYDEEEEDG [AFAP1_HUMAN_125_YA] 1.24
TPEKEVGYLEFTGPP [FAK2_HUMAN_849] 0.975
DRTDDLVYLNVMELV [FAK2_HUMAN_881] 1.16
ALETSRLYEDSGYSS [FBXO5_HUMAN_142] 0.523
ALETSRLYEDSGASS [FBXO5_HUMAN_142_YA] 0.568
STRNQETYETLKHEK [FCERG_HUMAN_76] 0.853
YETADGGYMTLNPRA [FCG2A_HUMAN_288] 0.568
TDDDKNIYLTLPPND [FCG2A_HUMAN_304] 0.748
TDPEALHYDAIDVEM [AFAP1_HUMAN_451_YA] 0.849
EAKILKQYDHPNIVK [FER_HUMAN_615] 1.18

Target: SHP2 N-SH2 domain wild-type
Assay: as above
Conditions: peptide library: Human pTyr

Enrichment score, inactive:
SAPYGARYVGSMVAD [F16P1_HUMAN_245] 0.377
VAGGIFLYPANKKSP [F16P1_HUMAN_265_YA] 1.97
IASLNEGYAKAFDAA [F16P2_HUMAN_216_YA] 0.671
EENVRFIYEAWQGVE [F195B_HUMAN_41] 0.99
NVTCTRIYEKVEGGG [FABP5_HUMAN_131] 1.56
DSKNFDDYMKSLGVG [FABPH_HUMAN_20] 1.13
MSSSYESYDEEEEDG [AFAP1_HUMAN_125] 1.73
AIEDEDAYKASVTRL [FAK2_HUMAN_580_YA] 0.824
MSSSAESYDEEEEDG [AFAP1_HUMAN_125_YA] 1.37
TPEKEVGYLEFTGPP [FAK2_HUMAN_849] 0.622
DRTDDLVYLNVMELV [FAK2_HUMAN_881] 1.2
ALETSRLYEDSGYSS [FBXO5_HUMAN_142] 0.518
ALETSRLYEDSGASS [FBXO5_HUMAN_142_YA] 0.499
STRNQETYETLKHEK [FCERG_HUMAN_76] 0.895
YETADGGYMTLNPRA [FCG2A_HUMAN_288] 0.576
TDDDKNIYLTLPPND [FCG2A_HUMAN_304] 0.648
TDPEALHYDAIDVEM [AFAP1_HUMAN_451_YA] 1.2
EAKILKQYDHPNIVK [FER_HUMAN_615] 1.12
